The campaign covered roughly 310,000 compounds. About 14,000 (4.5%) showed an effect of 50% or more. The effect is printed as a negative number. The list shows a part of the results.
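Further: peak tail current of the secondary pulse compared with the same well before compound.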

This assay deals with human ether-à-go-go-related gene (hERG) potassium channel (human, UniProt Q12809). The experiment in a line: primary screen, population patch clamp on CHO cells stably expressing hERG.
human ether-à-go-go-related gene (hERG) potassium channel, sequence (Q12809 whole entry, looked up): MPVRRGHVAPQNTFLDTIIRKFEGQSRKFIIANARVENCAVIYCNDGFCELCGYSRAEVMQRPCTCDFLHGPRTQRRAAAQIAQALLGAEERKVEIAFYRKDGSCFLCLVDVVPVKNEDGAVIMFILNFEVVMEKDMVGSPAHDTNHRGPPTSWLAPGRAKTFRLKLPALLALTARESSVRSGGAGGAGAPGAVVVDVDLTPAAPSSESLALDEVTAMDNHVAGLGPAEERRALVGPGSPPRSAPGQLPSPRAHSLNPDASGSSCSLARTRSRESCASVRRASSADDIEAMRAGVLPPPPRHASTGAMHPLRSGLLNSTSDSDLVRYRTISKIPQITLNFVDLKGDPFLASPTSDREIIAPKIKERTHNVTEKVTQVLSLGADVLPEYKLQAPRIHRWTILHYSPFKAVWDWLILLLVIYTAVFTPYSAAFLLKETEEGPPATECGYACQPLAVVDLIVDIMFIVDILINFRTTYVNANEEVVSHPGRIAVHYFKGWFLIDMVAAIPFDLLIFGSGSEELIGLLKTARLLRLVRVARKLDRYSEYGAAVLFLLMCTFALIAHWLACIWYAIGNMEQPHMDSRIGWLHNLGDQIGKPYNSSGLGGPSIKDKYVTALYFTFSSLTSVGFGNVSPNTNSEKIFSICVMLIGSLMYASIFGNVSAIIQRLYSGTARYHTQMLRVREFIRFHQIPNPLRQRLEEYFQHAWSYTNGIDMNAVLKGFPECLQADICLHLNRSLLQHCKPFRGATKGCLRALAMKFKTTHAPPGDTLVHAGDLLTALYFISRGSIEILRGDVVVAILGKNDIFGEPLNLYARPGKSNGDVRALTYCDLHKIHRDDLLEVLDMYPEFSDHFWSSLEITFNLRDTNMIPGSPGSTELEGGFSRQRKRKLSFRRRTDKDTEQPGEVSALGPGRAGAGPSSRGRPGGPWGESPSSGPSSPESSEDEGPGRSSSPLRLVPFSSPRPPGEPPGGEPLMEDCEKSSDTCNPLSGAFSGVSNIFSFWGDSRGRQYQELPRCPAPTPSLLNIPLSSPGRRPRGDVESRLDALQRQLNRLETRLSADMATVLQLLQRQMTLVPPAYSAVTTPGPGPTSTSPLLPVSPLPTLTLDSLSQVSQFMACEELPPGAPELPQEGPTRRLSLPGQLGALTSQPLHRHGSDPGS
Consider `C=CCSc1cc(C)nc2c(-c3ccccc3)c(C)nn12`, for which the “hERG current change (%, negative = inhibition) at 10uM” value was 1.38%.
To `COc1ccc(C(=O)NC(=S)Nc2ccc(N3CCN(C(C)=O)CC3)cc2)cc1[N+](=O)[O-]` belongs -2.14%; to `COc1ccc(CNc2oc(COc3ccc(Cl)cc3)nc2C#N)cc1`, 2.47%.
As for `COc1cc(NC(=O)c2ccc(Br)o2)ccc1NC(=O)c1ccccc1Cl`, the figure is -22.4%; as for `Cc1ccc(NC(=O)CSc2nc3ccc(Nc4nc(N5CCOCC5)nc(N5CCOCC5)n4)cc3s2)cc1`, 13.7%.
As for `CCOC(=O)Cc1c(C)c2c(O)cc(O)cc2oc1=O`, the figure is -18.6%.
Turning to `CCCCCCn1c(O)c(C=NC2CCN(Cc3ccccc3)CC2)c(=O)[nH]c1=O`, the “hERG current change (%, negative = inhibition) at 10uM” value was -65.7%.
To `CCOC(=O)C(NC(C)=O)(Nc1ccc(S(N)(=O)=O)cc1)C(F)(F)F` (centres unmarked) belongs 17.6%; to `CCOC(=O)N1CCN(c2nc(N(c3ccccc3)c3ccccc3)nc(-n3ccnc3)n2)CC1`, 7.08%.
Take `COc1ccccc1NC(=O)CCNC(=O)Cn1ccc2ccccc2c1=O`: the “hERG current change (%, negative = inhibition) at 10uM” value is listed as 3.55%.
`Cc1ccc(N2CN(Cc3cccnc3)CNC2=S)c(C)c1`: the “hERG current change (%, negative = inhibition) at 10uM” value is listed as -4.84%.
To `CCOc1ccc(N2C(=O)S/C(=C\c3cccn3C)C2=O)cc1` belongs 8.69%; to `O=[N+]([O-])c1ccc(F)cc1OCc1cccc(S(=O)(=O)N2CCOCC2)c1`, -31.9%; to `O=C(COC(=O)c1cccc(Cl)c1)NC1CCS(=O)(=O)C1` (centres unmarked), -8.73%.
As for `Cc1cc(O)ccc1Nc1nc(-c2cccnc2)cs1`, the figure is 4.4%; as for `COc1ccc(-c2nnc(N)s2)cc1`, 7.92%.
To `COc1cc([N+](=O)[O-])ccc1N=Nc1c(N)[nH]n(-c2ccccc2)c1=O` belongs 20.7%; to `NC1=C(c2ccccc2)C(=O)NC1=O`, 18.1%; to `Cc1cccc(NC(=O)CSCc2cc(=O)n3nc(C4CC4)sc3n2)c1`, 2.26%.
In the case of `CC1CCCCC1N1CN=C(Nc2nc3ccccc3s2)NC1` (centres unmarked), the “hERG current change (%, negative = inhibition) at 10uM” value is -4.41%.
Turning to `COc1ccc(C2CC(c3ccc(Cl)cc3)n3nc(N)nc3N2)cc1` (centres unmarked), the “hERG current change (%, negative = inhibition) at 10uM” value is on record as -22.3%.
To `CN(C)c1ccc(/C=C2\CC3C4CC=C5CC(O)CCC5(C)C4CCC3(C)C2=O)cc1` (centres unmarked) belongs 3.55%; to `O=C(Cc1ccccc1)N1CCN(Cc2cccc(Cl)c2)CC1.O=C(O)C(=O)O`, -1.51%; to `Cc1ccsc1C(=O)OCC(=O)NCC1CCCO1` (centres unmarked), -17.3%.
As for `COc1ccc2oc(=O)c(/C(C)=N/Nc3nc(-c4cc(C)ccc4C)cs3)cc2c1`, the figure is 11.5%; as for `O=C(NN1CCOCC1)c1ccccc1`, -19%.
On to `Cc1onc(-c2c(Cl)cccc2Cl)c1C(=O)NCCCN1CCOCC1`, for which the “hERG current change (%, negative = inhibition) at 10uM” value stood at 3.09%.
In the case of `CCOC(=O)c1ccc(NC(=O)C(=O)NCc2ccc(/C=C(/C#N)C(=O)NCCOC)o2)cc1`, the “hERG current change (%, negative = inhibition) at 10uM” value is -11.4%.
To `CCn1cc(C(=O)O)c(=O)c2cc(F)c(N3CCN(C(=S)NC(=O)c4ccc(Br)cc4)CC3)cc21` belongs 20.5%.
As for `N/C(Cn1cncn1)=N\OC(=O)c1ccc(Cl)cc1`, the figure is -2.86%.
As for `CCC(C)c1ccccc1N1CC(C(=O)N2CCN(S(=O)(=O)c3ccc(F)cc3)CC2)CC1=O` (centres unmarked), the figure is -29.3%.
Turning to `O=C1c2sc3nc4ccccc4n3c2C(=O)N1c1ccccc1Cl`, the “hERG current change (%, negative = inhibition) at 10uM” value is given as 11.1%.
As for `COc1ccc(S(=O)(=O)Nc2ccc3c(c2)OCO3)cc1C(=O)O`, the figure is 2.09%.
`Cn1c(COc2ccccc2)nnc1SCc1nc2ccccc2[nH]1`: the “hERG current change (%, negative = inhibition) at 10uM” value is recorded as -9.92%.
Consider `CC1=C(C(=O)Nc2ccccc2)C(c2ccc(C)o2)n2c(s/c(=C/c3ccccc3)c2=O)=N1` (centres unmarked), for which the “hERG current change (%, negative = inhibition) at 10uM” value is on record as 18.1%.
To `CCOc1ccc(NC(=O)Nc2ccc3c(c2)nnn3C)cc1` belongs 2.92%; to `CC(=O)N/C(=C\c1ccccc1)C(=O)OCC(=O)Nc1cc(S(=O)(=O)N(C)C)ccc1C`, 3.45%.
As to `CN(C(=O)CCN1C(=O)c2ccccc2C1=O)c1ccccc1`, the “hERG current change (%, negative = inhibition) at 10uM” value is reported as 17.7%.
Regarding `O=C(Nc1ccc(C(=O)O)cc1)/C(=C\c1ccc2c(c1)OCO2)NC(=O)c1ccccc1`, the “hERG current change (%, negative = inhibition) at 10uM” value was found to be 22%.
As for `CCCN(CC(=O)Nc1c(C)cccc1CC)C(=O)SCC`, the figure is 10%; as for `NC(=O)CC(NC(=O)Cc1cccc2ccccc12)c1ccc(N2CCc3ccccc3C2)c([N+](=O)[O-])c1` (centres unmarked), 2.15%; as for `COc1ccccc1C(=O)N1CCCC(c2nc(-c3cc(OC)c(OC)c(OC)c3)no2)C1` (centres unmarked), -10.6%.
To `Cc1cccc(CCNC(=O)C2CCCN(c3cnccn3)C2)c1` (centres unmarked) belongs -11.5%; to `O=C1C2CC=CCC2C(=O)N1CC(=O)N(Cc1ccccc1)C1CCS(=O)(=O)C1` (centres unmarked), -15.7%.

These data come from paper PMC4336329 (PLoS ONE, 2015).
